Results reported in publication PMC4336329 (PLoS ONE, 2015).
About 2,200 (0.71%) of roughly 310,000 compounds showed an effect of 50% or more. Effects have a minus sign here. Some of the results follow.

Biological target: human ether-à-go-go-related gene (hERG) potassium channel (human, UniProt Q12809)
Experiment: primary screen, population patch clamp on CHO cells stably expressing hERG

Sequence of human ether-à-go-go-related gene (hERG) potassium channel (Q12809 whole entry, looked up): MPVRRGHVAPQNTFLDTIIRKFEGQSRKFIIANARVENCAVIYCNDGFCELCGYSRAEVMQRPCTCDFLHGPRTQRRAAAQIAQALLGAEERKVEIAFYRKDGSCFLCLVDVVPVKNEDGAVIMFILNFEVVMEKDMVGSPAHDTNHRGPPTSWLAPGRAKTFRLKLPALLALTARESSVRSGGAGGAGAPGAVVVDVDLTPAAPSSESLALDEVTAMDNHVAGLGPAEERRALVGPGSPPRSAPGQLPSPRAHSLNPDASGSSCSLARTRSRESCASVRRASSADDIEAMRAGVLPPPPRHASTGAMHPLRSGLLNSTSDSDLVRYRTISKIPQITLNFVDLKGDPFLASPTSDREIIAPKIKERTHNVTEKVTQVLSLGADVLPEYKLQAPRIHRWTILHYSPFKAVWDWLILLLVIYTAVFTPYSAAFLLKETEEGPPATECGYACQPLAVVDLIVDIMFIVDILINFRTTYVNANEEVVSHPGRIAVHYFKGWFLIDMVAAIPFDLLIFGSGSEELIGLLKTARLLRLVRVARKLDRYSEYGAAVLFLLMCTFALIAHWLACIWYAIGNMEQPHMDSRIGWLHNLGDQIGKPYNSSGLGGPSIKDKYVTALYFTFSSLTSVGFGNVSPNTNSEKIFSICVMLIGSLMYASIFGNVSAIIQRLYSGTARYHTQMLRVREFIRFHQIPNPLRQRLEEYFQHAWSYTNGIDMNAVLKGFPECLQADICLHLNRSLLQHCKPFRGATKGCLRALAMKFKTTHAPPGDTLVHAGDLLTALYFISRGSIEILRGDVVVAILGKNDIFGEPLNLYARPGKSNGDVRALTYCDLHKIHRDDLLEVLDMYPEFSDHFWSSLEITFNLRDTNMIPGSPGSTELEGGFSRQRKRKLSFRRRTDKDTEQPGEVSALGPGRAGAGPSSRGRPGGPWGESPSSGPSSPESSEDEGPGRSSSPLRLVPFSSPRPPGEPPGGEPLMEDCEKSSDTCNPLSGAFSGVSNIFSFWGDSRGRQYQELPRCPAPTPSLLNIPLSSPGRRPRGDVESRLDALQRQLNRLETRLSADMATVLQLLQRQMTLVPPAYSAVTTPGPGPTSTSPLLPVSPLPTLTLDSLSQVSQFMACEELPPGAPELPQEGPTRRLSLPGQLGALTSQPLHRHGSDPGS

Compound	hERG current change (%, negative = inhibition) at 1uM
Cc1cccc(NC(=O)c2ccc(OCC3CCCO3)cc2)c1C (stereo not drawn)	7.85%
CC(C)NS(=O)(=O)c1ccc2c(c1)oc(=O)n2C	14.2%
CCOC(=O)c1nnn2c1nc(SCC(C)=O)c1ccccc12	12.5%
CSc1nsc(SCCN2C(=O)c3ccccc3C2=O)n1	-6.04%
CCCCC(=O)Nc1ccccc1N1CCOCC1	4.52%
O=C(O)c1cnn2c(-c3ccccc3)ccnc12	-3.72%
O=c1c2ccccc2c(-c2ccccc2)nn1-c1cc(Cl)cc(Cl)c1	12.2%
CCCCN(CC)S(=O)(=O)c1ccc(C(=O)Nc2nnc(-c3ccccc3Cl)o2)cc1	10%
Cc1ccc(C(=O)Nc2ccc(CC(=O)O)cc2)o1	-2.68%
CS(=O)(=O)N(CC(=O)Nc1cccc([N+](=O)[O-])c1)c1ccccc1	10.1%
CN(C)Cc1c(C(=O)N/N=C/c2cccc3ccccc23)nnn1-c1nonc1N	13.7%
Cc1cc(C(=O)CSc2nc(N)cc(N)n2)c(C)n1-c1cccc(C(F)(F)F)c1	-13%
O=C(CS(=O)CC(=O)N(c1ccccc1)C(C(=O)NC1CCCC1)c1cccs1)Nc1ccc(F)cc1 (stereo not drawn)	8.98%
NC(=O)[C@H]1CC2(CC(c3cccc(NC(=O)[C@H]4CCC(=O)N4)c3)=NO2)CN1C(=O)c1cc([N+](=O)[O-])cc([N+](=O)[O-])c1 (stereo partly drawn)	6.11%
Cc1ccc(O)c(NC(=O)C2CCCCC2)c1	13.5%
S=c1[nH]nc(-c2cc(-c3ccccn3)nc3ccccc23)o1	9.16%
CCCCSc1nc(C)cc(NC(=S)Nc2ccc(OC)cc2)n1	-8.68%
C=CCn1c(SCc2ccc(C(=O)NCCO)cc2)nc2sc(C)c(C)c2c1=O	-3.47%
CCCS(=O)(=O)c1c(S(=O)(=O)CCC)c2c3ccccc3ccn2c1C(=O)OC	2.02%
CCC(CC)C(=O)Nc1c2c(nn1-c1ccc(OC)cc1)CS(=O)C2 (stereo not drawn)	3.16%
CC(NC(=O)c1ccc(CS(=O)(=O)Cc2ccccc2F)o1)c1ccc2c(c1)OCCO2 (stereo not drawn)	10.8%
COc1ccc(C(=O)Nc2ccc(-c3cn4ccsc4n3)cc2)cc1S(=O)(=O)N1CCOCC1	-0.247%
O=C(Nc1nccs1)c1cccc2ccccc12	2.03%
Cc1c(C(=O)Nc2ccc(C(F)(F)F)cc2)sc2ncn(CC(=O)N3CCN(c4ccccn4)CC3)c(=O)c12	15.9%
